The other results are listed elsewhere or left out.

B1: chr1:32196777:32196878:+|3pUTR|ENSG00000084652|msi1|FALSE|unique (ssRNA)
RNA: GGGAGUUCUACAGUCCGACGAUCUUUGAAGCUAGUUCAUUGUCCUGCAGGUCCCUUCAUCUUCCAUACCUAGCCCACUCUUUUAGCCCUUACCUUAAAUCUCUCAGAUAAGUUGGUUCACAAAGAAUGUUAAGUACUGAAUCACAACAGAGGAUUGAGCAUCA
B2: chr3:52829118:52829279:-|CDS|ENSG00000055955|control|control|control (ssRNA)
RNA: GGGAGUUCUACAGUCCGACGAUCGUGGACUCCAGGGUCUCAUCCCGAUUUGCCCACACGGUCGUCACCAGCCGAGUGGUCAAUAGGGCCAAUACUGUGCAGGAGGCCACCUUCCAGAUGGAGCUGCCCAAGAAAGCCUUCAUCCAACAGAGGAUUGAGCAUCA
B3: chr7:139306712:139306813:+|3pUTR|ENSG00000157741|msi1|FALSE|bound_elsewhere (ssRNA)
RNA: GGGAGUUCUACAGUCCGACGAUCAUCUGGGGCUUGCCCUUGGAUUUCACUUGUUAAACACCCUCAAACUUAAAAGAAGAAAAUAGAUCUCCAGCUGGUGAAAAUUUUGUGCCCCAAAUAAUAUAUUAAUCCAAGUCUACCAAGCAACAGAGGAUUGAGCAUCA
B4: chr3:15254852:15254953:-|3pUTR|ENSG00000131370|msi1|total|mutant (ssRNA)
RNA: GGGAGUUCUACAGUCCGACGAUCAAACUGUUAAUUCUGUCACAGCCUGUAUAUUUCCGUCAUUUGUAAAUCUCUUCAUACAACCGUGACUUCUUUUUUGACUGAUACAGUAUCUUAAUUACAAGGUUAUUUUGUACUUGUCUUCAACAGAGGAUUGAGCAUCA
B5: chr1:16399343:16399521:-|CDS|ENSG00000187144|control|control|control (ssRNA)
RNA: GGGAGUUCUACAGUCCGACGAUCGCUCUGCCCACAGCUGGACAAGAAGAUGGUCCGUAGGCAGCCGAGCAACCACUAUGCACUAGACCAGUGCACACCCCCUGGCCUGGAUCCUGACAUCCGCAGCCCCUUCUUCCAGUCAGGCAACAGAGGAUUGAGCAUCA
B6: chr6:107870184:107870285:-|3pUTR|ENSG00000025796|msi1|total|mutant (ssRNA)
RNA: GGGAGUUCUACAGUCCGACGAUCUAAUAUUUCCUAUAAAAGGGUGAAAGCAGUUUCUUUCUCUAUAACCUCAAUCACCAGUUCCGUGAGAGCCUUUCUUGGCAGGCAGGAGGCAGUGUCACUGAGGAUUUUUUUCAUUUACUUCAACAGAGGAUUGAGCAUCA
B7: chr7:41961162:41961264:-|3pUTR|ENSG00000106571|unk|total|mutant (ssRNA)
RNA: GGGAGUUCUACAGUCCGACGAUCCCCUUGUGUAUCCUGCAGACAUGUAAAAUAAAAUACAAGUUCAUUUUUUUCACCUUUUUCCGAUUUUUUUAAAAAAUAAAAUGUGUAAUCCUUUUUUUAAAAGAAACACAUGUAAAUACACAACAGAGGAUUGAGCAUCA
B8: chr1:198253062:198253183:+|CDS|ENSG00000151414|unk|FALSE|unique (ssRNA)
RNA: GGGAGUUCUACAGUCCGACGAUCAUGGGCUAUAAUACAUUAGCCAACUUUCGAAUAGAAAAGAAAAUUGGUCGCGGACAAUUUAGUGAAGUUUAUAGAGCAGCCUGUCUCUUGGAUGGAGUACCAGUAGCUUUAAAAAAAGUGCAACAGAGGAUUGAGCAUCA
B9: ENSG00000198589:be:win_4951|CDS|ENSG00000198589|bound_else_gene|NA|bound_elsewhere_windowed (ssRNA)
RNA: GGGAGUUCUACAGUCCGACGAUCUCUCCGGAAACCAAAAAUGAUAGAGGAAAUGACUUGGACACUAAGGCUACACCGUCAGUUUCAGUUUCAAAAAACGUCAAUGUGAAAGACAUUCUCCGAAGCUUGGUUAACAUACCAGCACAACAGAGGAUUGAGCAUCA
B10: chr1:3780741:3780842:-|3pUTR|ENSG00000130764|unk|total|mutant (ssRNA)
RNA: GGGAGUUCUACAGUCCGACGAUCCCAAGCCGCUGGGACUACAGGUGUGUGCCACUAAGCUCAGCUAAUUUUUGUAUUUUCCGCCGAGACGGGGUUUCACCAUUUUGACCAGGAUGGUCUUGAUCUCUUGACCUCAUGAUCUGUCAACAGAGGAUUGAGCAUCA
B11: ENSG00000075711:stop:overlap|stop_codon|ENSG00000075711|stop_codon|NA|stop_codon (ssRNA)
RNA: GGGAGUUCUACAGUCCGACGAUCCAGAAAAAAUAAUGGAAAUAAAGCUCAUUAAAGGUCCUAAAGGUAUGUGGUCUUGGGUUUAGCAUUGCUGGAGGUGUUGGAAAUCAGCAUAUUCCUGGGGAUAAUAGCAUCUAUGUAACCCAACAGAGGAUUGAGCAUCA
B12: chr3:128462549:128463245:-|CDS|ENSG00000179407|control|control|control (ssRNA)
RNA: GGGAGUUCUACAGUCCGACGAUCCGGGAGUUUUUUGGUGGCCUGGACCCUUUCUCCUUUGAGUUCUGGGACAGCCCAUUCAAUAGUGACCGUGGUGGCCGGGGCCAUGGCCUGAGGGGGGCCUUCUCGGCAGGCUUUGGAGAACAACAGAGGAUUGAGCAUCA
B13: chr7:73831540:73831641:+|CDS|ENSG00000189143|msi1|total|mutant (ssRNA)
RNA: GGGAGUUCUACAGUCCGACGAUCCAAGGCCAAGACCAUGAUCGUGGCGGGCGUGGUGUUCCUGUUGGCCGGCCUUAUGGUGACCGUGCCGGUGUCCUGGACGGCCCACAACAUCAUCCAAGACUUCUACAAUCCGCUGGUGGCCAACAGAGGAUUGAGCAUCA
B14: ENSG00000124766:be:win_151|CDS|ENSG00000124766|bound_else_gene|NA|bound_elsewhere_windowed (ssRNA)
RNA: GGGAGUUCUACAGUCCGACGAUCUGGUGCAAGACCCCGAGUGGGCACAUCAAGCGACCCAUGAACGCCUUCAUGGUGUGGUCGCAGAUCGAGCGGCGCAAGAUCAUGGAGCAGUCGCCCGACAUGCACAACGCCGAGAUCUCCCAACAGAGGAUUGAGCAUCA
B15: ENSG00000111696:stop:overlap|stop_codon|ENSG00000111696|stop_codon|NA|stop_codon (ssRNA)
RNA: GGGAGUUCUACAGUCCGACGAUCCCUGGUCAGAAAGGCCCCCCACCUUCGGAACCCCUCUCCUGCAGGAGGCCCAGGCCAAGUAGCCAAGGGCAAAAACUAGAAACUGUAACUGCCCCUGAUUGGGCAGGCAUGAUGGGGUUGCAACAGAGGAUUGAGCAUCA
B16: ENSG00000198589:be:win_5451|CDS|ENSG00000198589|bound_else_gene|NA|bound_elsewhere_windowed (ssRNA)
RNA: GGGAGUUCUACAGUCCGACGAUCUUUUGCACCUUUUCUUUCUCGGACACUUUUGGGUAGCCAUGGACAAGAACUGCUUAUAGAAGGAACAAGUCUGGUUUGCAUGAAGUCGAGUAGUUCAGUUGUGGAAUUGGUUAUGCUACUCAACAGAGGAUUGAGCAUCA
B17: chr17:35724233:35724342:+|3pUTR|ENSG00000006125|msi1_unk|total|mutant (ssRNA)
RNA: GGGAGUUCUACAGUCCGACGAUCUCCUGGAGGCAGAGAUGCAGUUACCUACCCCCGCUUUUGAUGGGUUCUCUUACCUGCCGCCGCCUUAUCCCUGGUCAUUUGGAUUUUCAGUUUGCUUUUUUCUUUUUUUCCCCUCCAAACCAACAGAGGAUUGAGCAUCA
B18: chr12:95514132:95514176:+|3pUTR|ENSG00000111142|msi1_unk|FALSE|overlapping (ssRNA)
RNA: GGGAGUUCUACAGUCCGACGAUCCUUUUAAAUGCUAACUGUUUUUCCCCUUCCUGUCUAGGAAAAUGCUAUAAAGCUCAAAUUAGUUAGGAAUGACUUAUACGUUUUGUUUUGAAUACCUAAGAGAUACUUUUUGGAUAUUUACAACAGAGGAUUGAGCAUCA
B19: chr22:41177882:41177989:+|CDS|ENSG00000100393|unk|total|mutant (ssRNA)
RNA: GGGAGUUCUACAGUCCGACGAUCCAAAACCUUUUGCGGACUCUCAGGUCUCCCAGCUCUCCCCUGCAGCAGCAACAGGUGCUCCGUAUCCUUCACGCCAACCCCCAGCUGUUGGCUGCAUUCAUCAAGCAGCGGGCUGCCAAGCAACAGAGGAUUGAGCAUCA
B20: chr1:179105649:179105771:-|3pUTR|ENSG00000143322|msi1|total|mutant (ssRNA)
RNA: GGGAGUUCUACAGUCCGACGAUCAGAAAGGAAACCUUGAUUCUUACCAUUGCUGCUCCAAAGGAGGCCCAGGUUAAGAGGAUCCGAGGAGACACGCGGUGCUGGGCAUUCCUGGCAGGUGUUGGGUGAUCCCCGCAGUAUGUCCAACAGAGGAUUGAGCAUCA
B21: chrX:152971868:152971969:+|3pUTR|ENSG00000147394|unk|FALSE|unique (ssRNA)
RNA: GGGAGUUCUACAGUCCGACGAUCUUCCCUUACAGGUAUGUUGGCAUGUGUUGGAAAAUUUACACAAUUAGGUUUAAAUUCAGUAGGAUGUGAUUUUAGGAUGCUACUGAUCAAAGUGAUAUCUGUGUCUGUUGGAAUCUUGAUCAACAGAGGAUUGAGCAUCA
B22: chr11:95166718:95166819:-|3pUTR|ENSG00000149212|unk|FALSE|unique (ssRNA)
RNA: GGGAGUUCUACAGUCCGACGAUCACAGUUUCCCCUUCCUCUUUCUCUUCACAUUUACUCUUUUCAACCCAAAAUAAGAGACAUAGAAAGCAAACCACAGCCAGUUUGGCAUCUUCUCAGUGCUACUAGUAUAGGCACAUACACCAACAGAGGAUUGAGCAUCA

This assay has as its target MSI1 full-length (mouse, UniProt Q61474 1-362). As to the kind of experiment: nsRBNS (natural sequence RNA bind-n-seq); RBNS binding buffer (assumed for nsRBNS): 25 mM Tris pH 7.5, 150 mM KCl, 3 mM MgCl2, 0.01% Triton X-100, 500 ug/ml BSA, 20 U/ml SUPERase-In, 4 C; UNK is unkempt and MSI1 is Musashi-1; names of the RNAs are library labels; protein concentration not given here; high values mean tight binding.
Sequence of UniProt Q61474 (Q61474 whole entry): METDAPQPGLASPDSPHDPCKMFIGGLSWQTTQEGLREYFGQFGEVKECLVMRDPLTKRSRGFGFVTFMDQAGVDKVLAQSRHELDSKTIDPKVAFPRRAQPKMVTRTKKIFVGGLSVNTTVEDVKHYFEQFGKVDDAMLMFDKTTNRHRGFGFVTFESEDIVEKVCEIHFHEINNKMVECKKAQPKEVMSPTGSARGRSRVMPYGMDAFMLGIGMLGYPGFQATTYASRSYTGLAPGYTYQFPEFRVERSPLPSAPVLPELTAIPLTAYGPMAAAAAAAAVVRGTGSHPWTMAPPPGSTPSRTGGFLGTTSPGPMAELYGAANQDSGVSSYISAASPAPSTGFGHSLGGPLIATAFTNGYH
For B1, the binding signal came to 1.78 enrichment R.

For the molecule B2, the binding signal was 0.562 enrichment R.

In the case of B3, the binding signal was found to be 2.1 enrichment R.

Consider B4, for which the binding signal worked out at 0.393 enrichment R.

Turning to B5, the binding signal turned out to be 0.47 enrichment R.

Turning to B6, the binding signal came out at 0.546 enrichment R.

Consider B7, for which the binding signal worked out at 0.602 enrichment R.

Molecule B8 gave a binding signal of 1.93 enrichment R.

With B9, the binding signal is 0.284 enrichment R.

In the case of B10, the binding signal is 0.394 enrichment R.

The molecule B11 registered a binding signal of 2.15 enrichment R.

The molecule B12 returned a binding signal of 0.58 enrichment R.

On to B13, for which the binding signal was 0.33 enrichment R.

Consider B14, for which the binding signal was 0.335 enrichment R.

B15: the binding signal was 1.01 enrichment R.

Molecule B16 returned a binding signal of 0.53 enrichment R.

As for B17, the binding signal is 0.689 enrichment R.

Turning to B18, the binding signal is 6 enrichment R.

In the case of B19, the binding signal amounted to 0.625 enrichment R.

For B20, the binding signal was 0.43 enrichment R.

On to B21, for which the binding signal worked out at 1.43 enrichment R.

In the case of B22, the binding signal turned out to be 2.88 enrichment R.
